Test results: the supplement of paper PMC10126150
Sequences with one replicate were seen in a single cluster, so their values are uncertain.

Test system: ATP
Test: switch fluorescence ratio, 500 uM ATP over buffer (Cy3 cluster intensity, sum of 5 cycles each) (fold (ratio)); higher = stronger signal-on switching upon ATP binding; sequences stand for … in TCGTCGGCAGCGTCAGATGTGTATAAGAGACAGTTTTTTTTTTTTTTTTTTTTTTTTT…TC
Conditions: aptamer strand: ATP DNA aptamer (quencher-CACCTGGGGGAGTATTGCGGAGGAAGG + anchor), 100 nM annealed; ATP concentration: 500 uM; one replicate
Summary of the method: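 Five buffer/ATP imaging cycles were run on Cy3-labelled switching-strand clusters on a modified Illumina MiSeq flow-cell, with NaOH stripping and re-annealing between cycles. In each cycle, clusters annealed to 100 nM quencher-labelled ATP aptamer were imaged in selection buffer, then after 15 min with 500 uM ATP at 22 °C. Per cluster, the fluorescence ratio is summed target-cycle over summed buffer-cycle Cy3 intensity, averaged per switch-domain sequence. Only clusters within 100-1000 RFU were kept.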
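Also: ATP exposure 15 min at 22 °C before imaging.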

Row | Sequence | switch fluorescence ratio
1 | ATATATGTAT | 1.01
2 | TCCCGGCACG | 1.02
3 | TGGCGTTCAG | 0.999
4 | TAGTTGCTAT | 1
5 | TCGCAGAGCA | 1.09
6 | GGATGCCAG | 0.971
7 | TCTATACATA | 1.07
8 | TCAACATTCC | 2.46
9 | AAATTTGAA | 1.03
10 | ACAGTAGAGC | 0.995
11 | GGCACTTCGA | 1.04
12 | GTTGCCAGGG | 1.04
13 | TTAATACGTT | 1.05
14 | CCAGACAGCT | 1.01
15 | GAGAGAGCCA | 0.989
16 | TGGTGCGGTC | 1.03
17 | TGCCGGATAC | 1.1
18 | CAGGTTTCCG | 0.971
19 | CAGTGCAGGC | 0.876
20 | CCTTTGCCTC | 2.17
21 | CAATTGTTTC | 0.963
22 | ATGAGTTATG | 1.05
23 | CTGAATTAAT | 0.954

Row | Sequence | switch fluorescence ratio
24 | ACGGCCTCTA | 1.02
25 | GTTATTCGAG | 0.995
26 | AAGCCTTCAT | 1.25
27 | AGGCCCGGA | 0.965
28 | CGAACCACGA | 1.07
29 | GGTACACGCA | 1.1
30 | TAACCGAAGC | 2.06
31 | AGGGTGTTAA | 0.976
32 | TTCTAATCGT | 0.986
33 | AAAATTGCTT | 1
34 | TAACTCATTG | 0.999
35 | TAATCTGTAC | 1.24
36 | ATCGGTATCT | 0.98
37 | CGGCTTAAGA | 0.975
38 | CACACGAAAG | 1.03
39 | GCACCTGGAC | 1.18
40 | GAAGTGCGTC | 0.968
41 | CATCAGTGAT | 1.07
42 | CTAAGGGTGT | 1.01
43 | CAAGGGGATG | 0.974
44 | TGTATGGCCA | 0.957
45 | CCTAATGGTT | 1
46 | TTTGACCAAC | 1.13

Row | Sequence | switch fluorescence ratio
47 | AGTGTAGCGC | 0.951
48 | ACGGACTGAG | 1.14
49 | AGGATTTGG | 1.01
50 | GCCCTTGGTC | 1
51 | CTCAGCAGCG | 1.26
52 | ATAGCCCCCT | 1.01
53 | TTGGCATAAT | 0.968
54 | CCGTTAGGAT | 0.955
55 | AGCTGCTGCG | 0.929
56 | ATTTGAGACA | 1.07
57 | ATCTTGGTGG | 1.01
58 | ATTTGGACGC | 1.17
59 | GGTTATATGG | 0.98
60 | CTGAGGAGTA | 1.02
61 | GATAGGGTGG | 0.953
62 | ATCAGGTTCC | 1.14
63 | GAAGTATATG | 0.999
64 | TCTAGGTAGG | 0.988
65 | TTTCTAGCTG | 1.06
66 | TAAAACGGG | 1.02
67 | TTCTAGTACC | 1.05
68 | CCTGCTGCCT | 1.05
69 | TAGATGCCGT | 0.987

Row | Sequence | switch fluorescence ratio
70 | GTTACGGTTC | 1.01
71 | AATGGCTGAT | 1.01
72 | GATTTAACTT | 0.967
73 | GGCATCTTCG | 0.988
74 | GTTCTTCGTT | 0.961
75 | ACGTATGTG | 1.02
76 | TTGGCTACTT | 1.08
77 | AAAGTGCATT | 0.968
78 | GCATGCAGAA | 1.01
79 | ACTACCGCCT | 1.24
80 | TTTAGAAAG | 0.987
81 | AATCCATGAA | 1.02
82 | CAGTACTCGG | 1.04
83 | GTAGTGTTAA | 1.05
84 | AGGTGACATA | 1.01
85 | ACGTGGGGAC | 1.03
86 | GTACGCCGCA | 1.1
87 | TGGGCAGGTT | 0.996
88 | CGATTGGGT | 0.979
89 | CTTGAACTGG | 1
90 | GAGTGAATAG | 0.998
91 | GGAGATTGAC | 1.07
92 | TCATCCTTGA | 1.01

Row | Sequence | switch fluorescence ratio
93 | TGTTGTGAG | 1
94 | CGTCGTTTTC | 1.03
95 | GGGTTCAGAA | 0.97
96 | ATTGAGTAGT | 1.01
97 | CAGGGATACG | 1.03
98 | TTTAGTTAGC | 0.948
99 | ACGGAATGGT | 1.17
100 | AGAATGTGGA | 0.923
101 | AGAAAATCGC | 1.05
102 | TGTCGAAATA | 0.977
103 | CCGGACGCTT | 4.57
104 | TGACTTAGT | 0.961
105 | GCGATAATGG | 1.05
106 | GCTGACACTC | 1.03
107 | ATAGTCGCAC | 1.03
108 | TGGTATGAAG | 1.08
109 | CCAACCGGAC | 1.58
110 | TTACTCGGAA | 1.22
111 | TTAGGCTGTA | 0.974
112 | AAATCATGCG | 0.967
113 | AAGTGGGTAG | 0.99
114 | ACGTCACCGT | 1.52
115 | GGGCGCCTCC | 1.01

Row | Sequence | switch fluorescence ratio
116 | GAGGGTTTA | 0.99
117 | GGGTTTTGT | 0.976
118 | GCGCTGTAGG | 1.05
119 | ACTCGCAGCA | 1.57
120 | ACCATCTCAG | 1.02
121 | TGCTAACGTC | 1.01
122 | GAAATACGGC | 1.17
123 | GAAAATCAAT | 1.01
124 | GGTGCGCAAG | 1.04
125 | CACACGACAA | 1.31
126 | CGCTACGCCC | 2.48
127 | ATTTGCCTAC | 1.07
128 | TACCCGCTGA | 1.47
129 | AGTTAAAGGA | 1
130 | CGGCACGCTG | 1
131 | TCTGGGAAGC | 0.982
132 | ACAATGTGG | 0.964
133 | TCATTCCAGA | 1
134 | GGGAAACATA | 1.01
135 | GGTCGGGTCC | 1.02
136 | CTCAAGGTTT | 0.987
137 | CATTGCTGAG | 0.982
138 | GCGGTGCGAC | 1.15

Row | Sequence | switch fluorescence ratio
139 | ATAGATCAGA | 1.03
140 | AACCACAGTG | 1.38
141 | AGGCTAGGTA | 1.03
142 | GTTAGGTACT | 1.04
143 | GCTGGCGGGT | 1.05
144 | AAGGGTGAT | 0.968
145 | GGGGCGCGTG | 0.969
146 | TCTTGCTGGA | 0.998
147 | GGTCTGTTGA | 0.983
148 | TATCAAAGTT | 0.975
149 | TAAAAACCTC | 1.04
150 | TGTTTTCGTT | 0.996
151 | CACATGAGTG | 0.971
152 | AATTTCATAC | 1.02
153 | TGCTCTGTCC | 1.08
154 | CGATTACGGG | 1.09
155 | CATGGCAAAG | 1.02
156 | CTAGGTCGCG | 1.03
157 | GCGCTATTGG | 1.08
